PubChem BioAssay AID1345083 (National Center for Advancing Translational Sciences (NCATS), 2018)
Among all 94,000 compounds or so, about 6,200 (6.6%) were called active. The shares of active, inactive and inconclusive entries below differ from those in the screen. Calls come from the whole dose curve; as a rule, active = well fitted inhibition curve with a large enough effect; inconclusive = small, poorly fitted or top-dose-only effect; inactive = flat fitted curve, though single readings scatter. Potencies beside an inconclusive call are fits to weak or partial responses and may not hold up.

assay: Cytotoxic Profiling in HEK 293 Cell Line of Diverse Libraries Using Quantitative High-Throughput Screening; conditions: HEK 293 viability, ATP luminescence (CellTiter-Glo), 48-72 h; activity change, negative = cytotoxicity: at 115 µM (top of the series) unless noted; series mostly up to 115 µM; note: nearly all actives have a fitted effect of over 60% in size
Summary of the method: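 Viability of HEK 293 cells, plated at 250 cells/well, was judged by cellular ATP after compound treatment for 48 or 72 hr. Luminescence was imaged 10 min after CellTiter-Glo addition at room temperature.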
% is set by controls: 0 for no effect and ±100 for the full control effect; potency is the fitted concentration of half-maximal effect; tags give direction and shape of the fitted curve.

SMILES | activity change, negative = cytotoxicity | Potency | outcome
O=C(CN1CCCc2nc(-c3ccncc3)ncc2C1=O)NCC1CC1 | inactive: -27.3% |  | 
CN1CC(=O)N(C2CCNCC2)Cc2c(NC3CCC3)ncnc21 | inactive: -6.19% |  | 
COCCNC(=O)C(C)[C@@H]1CC[C@@]2(C)CC[C@H](NC(=O)c3ccccc3)[C@@H](C)[C@@H]2[C@H]1O (stereo partly drawn) | inactive: -10.3% [at 172 µM] |  | 
O=C(Cc1ccc(F)cc1)N1CC(c2nnc(-c3ccncc3)o2)C2(CCOCC2)C1 (stereo not drawn) | inactive: -22.1% |  | 
COCC1CN(C2CCC2)CC12CCN(C(=O)Cc1cccc(OC)c1)CC2 (stereo not drawn) |  | inconclusive: 56.2 µM [inhibitor, partial curve, poor fit] | 
Cc1ccc(-c2nc(CNC(=O)C(C)CN)[nH]c2-c2ccccn2)cc1 (stereo not drawn) |  | inconclusive: 79.4 µM [inhibitor, partial curve, poor fit] | 
CCCc1noc(-c2cccn3c(CNC(=O)c4ccc(C(C)(C)C)cc4)nnc23)n1 |  | inconclusive: 50.1 µM [inhibitor, partial curve, poor fit] | 
COc1ccc(CN2CCCCC23Cc2ccccc2CNC3=O)cc1 (stereo not drawn) | inactive: -11.3% |  | 
CC(C)CNC(=O)c1cc(C(C)(C)C)nc2c1cnn2C |  | inconclusive: 126 µM [inhibitor, partial curve, poor fit] | 
O=C1NCc2ccccc2CC12CCCN(CC1=CCCCC1)C2 (stereo not drawn) |  | inconclusive: 112 µM [inhibitor, partial curve, poor fit] | 
NC(=O)CN1CCCC(c2nc(-c3ccc4nc[nH]c4c3)no2)C1 (stereo not drawn) |  |  | inactive
CCn1cc(S(=O)(=O)N2CCC(c3noc(-c4ccncc4)n3)C2)cn1 (stereo not drawn) | inactive: -10.2% |  | 
CN(Cc1ccncc1)Cc1ccc(-c2ccccc2)cc1 |  | active: 70.8 µM | 
CN1CCC2(C1)CN(CC1CC1)c1ccc(C(=O)Nc3ccccc3)cc12 (stereo not drawn) |  | inconclusive: 50.1 µM [inhibitor, partial curve, poor fit] | 
O=C(Nc1ccccc1F)N1CC2CCC(C1)N2Cc1ccc(-c2ccccc2)cc1 |  | inconclusive: 56.2 µM [inhibitor, partial curve, poor fit] | 
CCCC(=O)N1Cc2ccccc2CC2(CCN(C)CC2)C1 |  |  | inactive [at 172 µM]
COc1ccc(C2Cn3nnc(-c4nc(C(C)C)no4)c3CO2)cc1 (stereo not drawn) |  | inconclusive: 89.1 µM [inhibitor, single point] | 
O=C1Nc2ccccc2CC12CCCN2Cc1ccc(Cl)cc1 (stereo not drawn) |  | inconclusive: 39.8 µM [inhibitor, partial curve] | 
COc1ccc(NC(=O)NCC2Cn3cccc3C(=O)N2C)cc1 (stereo not drawn) |  | inconclusive: 3.55 µM [inhibitor, partial curve, poor fit] | 
COc1ccc(CCC(=O)N2CCCCCC2c2nnc(-c3ccccc3)o2)cc1 (stereo not drawn) |  | inconclusive: 79.4 µM [inhibitor, partial curve] | 
CCOC(=O)C1CCN(C(=O)C2CCc3nnc(C4CCN([S+](C)(=O)[O-])CC4)n32)CC1 (stereo not drawn) |  |  | inactive
O=C(COc1ccc(F)cc1)N1CC(Oc2ccc(-c3nc(-c4ccccc4)no3)cc2)C1 |  | inconclusive: 35.5 µM [inhibitor, full curve, poor fit] | 

SMILES | activity change, negative = cytotoxicity | Potency | outcome
O=C(c1ccc(F)cc1)N1CCCN(c2cc(-c3ccc(F)cc3)[nH]n2)CC1 |  | inconclusive: 70.8 µM [inhibitor, partial curve] | 
Cc1nc(CN2C(=O)OC3(CCN(C(=O)c4scnc4C)CC3)C2(C)c2ccccc2)cs1 (stereo not drawn) | inactive: -14% |  | 
COc1cc(Nc2nc(-c3ccccc3F)no2)cc(OC)c1OC |  | active: 31.6 µM | 
CC(C)Cc1cnc(C2CCCN(C(=O)c3ccc(Cl)cc3)C2)[nH]1 (stereo not drawn) |  | inconclusive: 89.1 µM [inhibitor, partial curve] | 
O=C(NCCn1cccc1-c1nc(-c2ccccc2)no1)c1cccc(Cl)c1 |  | inconclusive: 56.2 µM [inhibitor, partial curve, poor fit] | 
O=C(NC[C@H]1O[C@H](Cc2cc(CN3CCNCC3)on2)CC[C@@H]1O)c1ccccc1F | inactive: -10.1% |  | 
CC(C)c1ccc(S(=O)(=O)N2CCCC(Cn3cnc4cccnc43)C2)cc1 (stereo not drawn) |  | inconclusive: 39.8 µM [inhibitor, partial curve, poor fit] | 
Cc1ccc(CN2CC(O)CN(C(=O)OCc3ccccc3)CC2=O)cc1 (stereo not drawn) |  | inconclusive: 89.1 µM [inhibitor, single point] | 
CN1N=C(C(=O)N2CCOC(Cc3cccc4ccccc34)C2)CCC1=O (stereo not drawn) | inactive: -4.51% |  | 
CCNC(=O)NC1(CC2CC2)CCN(C(=O)NCCc2ccccc2)CC1 | inactive: -21.9% |  | 
CCc1cccc(NC(=O)C2CCN(C(=O)c3nnn4c3COC(c3ccc(OC)cc3)C4)CC2)c1 (stereo not drawn) |  | active: 17.8 µM | 
COc1cccc(Nc2ccc3c(n2)C(C)(C(=O)NCc2ccco2)CN(C)C3)c1 (stereo not drawn) |  | inconclusive: 28.2 µM [inhibitor, full curve] | 
CC(C)(C)c1ccc(CN2CCN(Cc3cc4n(n3)CCNC4)CC2)cc1 |  | inconclusive: 28.2 µM [inhibitor, full curve, poor fit] | 
CCN1c2cc(C(=O)Nc3ccc(F)cc3)ccc2C(=O)N2CCCCC21 (stereo not drawn) |  | inconclusive: 56.2 µM [inhibitor, partial curve, poor fit] | 
CCCCc1ncc(CN2CCCC(C(=O)Nc3ccccc3-c3ccc(OC)cc3)C2)[nH]1 (stereo not drawn) |  | inconclusive: 50.1 µM [inhibitor, partial curve, poor fit] | 
CCCC(=O)N1Cc2ccccc2CC2(CCCN(Cc3ccccn3)C2)C1 (stereo not drawn) | inactive: -25.8% |  | 
O=C(NC1CCOCC1)c1cc(-c2ccccc2F)cc2c1OCCN2Cc1cccnc1 |  | inconclusive: 56.2 µM [inhibitor, partial curve, poor fit] | 
CC(C)C(=O)NC1CCN(c2ccnc3ccnn23)CC1 |  |  | inactive [at 172 µM]
O=C1CCN(Cc2ccc3c(c2)CCO3)CCCC(c2nc(-c3cccnc3)no2)CCN1 (stereo not drawn) |  | inconclusive: 56.2 µM [inhibitor, partial curve, poor fit] | 
Cc1noc(C)c1[S+](=O)([O-])N1CCC2(C1)C(=O)N(Cc1ccccc1)c1ccccc12 (stereo not drawn) |  | inconclusive: 17.8 µM [inhibitor, full curve, poor fit] | 
COc1cccc(N2C(=O)NC(=NC3CCCCC3)C23CCCN(Cc2ccc(N(C)C)cc2)C3)c1 (stereo not drawn) |  | active: 31.6 µM | 
